Results published in PubChem BioAssay AID588855 (National Center for Advancing Translational Sciences (NCATS), 2011).
The campaign covered roughly 410,000 compounds. About 5,000 (1.2%) were called active. The shares of active, inactive and inconclusive entries below differ from those in the screen. Calls follow the shape of the dose curve; as a rule, active = well fitted inhibition curve with a large enough effect; inconclusive = small, poorly fitted or top-dose-only effect; inactive = no such curve, though single readings can be large or run the other way. A potency beside an inconclusive call is a rough fit, not a confirmed value.
Potency is read from the fitted curve at half-maximal effect; tags tell the direction and shape of the fitted curve.

Experiment: qHTS for Inhibitors of TGF-b; also: nearly all actives have a fitted effect of over 65% in size
Conditions: HepG2 CAGA-GFP TGF-b/SMAD3 reporter, GFP fluorescence, 18 h, TGF-beta stimulated, 500 pg/mL final; series mostly up to 46.1 µM
Procedure, shortened: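 HEPG2 CAGA-GFP, 1000 cells/well; 2 h settle, 37 C; cpd via pin tool; TGF-b 500 pg/mL final; 18 h, 37 C; GFP imaging ex488/em500-530; %Activity normalised to -TGF-b and +DMSO controls; CRC fit, curve class.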
For `CC(C)c1onc(C(=O)NCc2ccccc2)c1[N+](=O)[O-]`, the Potency was inconclusive: 22.4 µM [inhibitor, single point]. For `COc1cccc(NC(=O)Nc2nnc(Cc3ccccc3F)s2)c1`, the Potency was inconclusive: 12.6 µM [inhibitor, partial curve, poor fit]. In the case of `Cc1cccc(C)c1NC(=O)C(=O)NCCCN1CCOCC1`, the Potency is reported as inconclusive: 0.126 µM [inhibitor, full curve, poor fit]. For `CCC/C(C#Cc1ccsc1)=C1/c2ccccc2C(=O)N1c1ccccc1`, the Potency was inconclusive: 17.8 µM [inhibitor, partial curve, poor fit]. With `O=C(OCCN1CCCC1)C1(c2ccccc2)CCCC1` the Potency was “inactive”. In the case of `O=C(C1CCCN(Cc2cccc(F)c2)C1)N1CCCCC1` (centres undefined), the Potency is reported as inconclusive: 35.5 µM [inhibitor, single point]. In the case of `COc1cccc(NC(=O)c2ccc(S(=O)(=O)N3CCCC3)cc2)c1`, the Potency is reported as “inactive”. With `CCCCN1CC(c2nc3ccccc3n2CCCCOc2ccc(C)cc2C)CC1=O` (centres undefined) the Potency was active: 11.2 µM. In the case of `S=C(Nc1ccc(Cl)c(Cl)c1)NC1CCCCC1`, the Potency is reported as inconclusive: 22.4 µM [inhibitor, single point]. In the case of `CN(C)c1ccc(N=C/C=C2\N(C)c3ccccc3C2(C)C)cc1`, the Potency is reported as inconclusive: 35.5 µM [inhibitor, single point]. With `Cc1cc2ccccn2c1C(=O)c1nc(N2CCOCC2)ncc1Cl` the Potency was inconclusive: 14.1 µM [inhibitor, single point]. With `COC(=O)c1ccc(C(=O)OC)c(=O)[nH]1` the Potency was inconclusive: 28.2 µM [inhibitor, single point]. In the case of `COc1cc2c(cc1O)C(SC)=NC(C)(C)C2`, the Potency is reported as inconclusive: 25.1 µM [inhibitor, single point]. For `C/C(=N/NC(=S)Nc1cccc(C)c1)c1cccc([N+](=O)[O-])c1`, the Potency was inconclusive: 2 µM [inhibitor, partial curve, poor fit]. In the case of `Cc1ccc(/C=C/C(=O)N2CCN(S(=O)(=O)c3c(C)c(C)cc(C)c3C)CC2)o1`, the Potency is reported as inconclusive: 11.2 µM [inhibitor, partial curve, poor fit]. With `CCC[C@@H]1C[C@@]1(CCC)[C@@H](NC(=O)c1ccccc1)c1ccc(C(=O)OC)cc1` the Potency was inconclusive: 2.82 µM [inhibitor, single point]. In the case of `CCCC(=O)N1CCN(c2nc3c(OC)ccc(Cl)c3s2)CC1`, the Potency is reported as “inactive”. For `Cc1ccc(S(=O)(=O)Nc2ccc3c(c2)n(C)c(=O)n3C)cc1`, the Potency was “inactive”. In the case of `NNC(=O)c1cc(-c2ccc(O)cc2)nc2ccc(Br)cc12`, the Potency is reported as inconclusive: 35.5 µM [inhibitor, single point]. For `CCO[C@H]1OC(C(=O)NCc2ccccc2)=C[C@@H](c2cn(C(C)=O)c3ccccc23)[C@@H]1CCCO`, the Potency was inconclusive: 3.55 µM [inhibitor, single point]. In the case of `O=C(CC(=O)NN=C1CCCC1)NCCc1ccccc1`, the Potency is reported as inconclusive: 5.62 µM [inhibitor, single point]. In the case of `CCCCNC(=S)NC(=O)c1ccc([N+](=O)[O-])cc1`, the Potency is reported as “inactive”. For `CCOC(=O)c1ccc2nc(NC(=O)C(C)C)sc2c1`, the Potency was inconclusive: 6.31 µM [inhibitor, single point]. In the case of `COc1cc(Cl)c(C)cc1NC(=O)c1cc2ccc3cccnc3c2[nH]1`, the Potency is reported as inconclusive: 20 µM [inhibitor, partial curve, poor fit]. For `COc1ccc(S(=O)(=O)n2nc(-n3c(C)ccc3C)c3c(F)cccc32)cc1OC`, the Potency was inconclusive: 15.8 µM [inhibitor, single point]. For `COc1ccc(Cl)cc1NC(=O)CN(C)C(=O)c1sccc1-c1ccccc1`, the Potency was inconclusive: 35.5 µM [inhibitor, single point]. With `O=C(CN1C(=O)C2(OCCCO2)c2ccccc21)NCc1ccccc1` the Potency was inconclusive: 35.5 µM [inhibitor, single point]. With `COc1ccccc1CNC(=O)COc1ccc(S(=O)(=O)N2CCOCC2)cc1C` the Potency was “inactive”. In the case of `Cc1c(/C=C/C(=O)c2ccc(O)cc2)cnn1C`, the Potency is reported as “inactive”. With `CN(C)c1ccc(N=Cc2cccn2C)cc1` the Potency was inconclusive: 15.8 µM [inhibitor, single point]. In the case of `COc1ccccc1C(=O)Nc1c(C(=O)N(CCN(C)C)Cc2ccco2)oc2ccccc12`, the Potency is reported as inconclusive: 35.5 µM [inhibitor, single point]. In the case of `NS(=O)(=O)c1ccc(NC(=O)COC(=O)CC2Sc3ccccc3NC2=O)cc1` (centres undefined), the Potency is reported as “inactive”. In the case of `C=Cc1ccc(Cn2c(C(=O)O)c(CNCc3cccs3)c3ccc(C)cc32)cc1`, the Potency is reported as inconclusive: 35.5 µM [inhibitor, single point]. In the case of `Cc1ccc(Cn2c(=O)n(-c3ccccc3)c(=O)c3ccc(C(=O)NCc4ccco4)cc32)cc1`, the Potency is reported as inconclusive: 35.5 µM [inhibitor, single point]. For `Cn1c(SCc2ccc(F)cc2)nc2c([nH]c3ccccc32)c1=O`, the Potency was “inactive”. With `S=c1[nH]c2ccccc2n1CCOc1ccccc1` the Potency was inconclusive: 15.8 µM [inhibitor, single point]. With `C(=C\c1ccccc1)/CN1CCN(C(c2ccnc3ccccc23)c2nnnn2C2CCCC2)CC1` (centres undefined) the Potency was active: 10 µM. In the case of `COc1ccc([C@H]2CC(=O)C=C(/C=C/c3ccc(Cl)cc3)C2)cc1`, the Potency is reported as inconclusive: 6.31 µM [inhibitor, single point]. With `COc1ccnc(CSC(N)=Nc2cccc(C(F)(F)F)c2)c1` the Potency was inconclusive: 10 µM [inhibitor, partial curve, poor fit]. In the case of `CC(=O)C1=C(C)NC(SCC(=O)c2ccc(Cl)cc2Cl)=C(C#N)C1c1ccco1` (centres undefined), the Potency is reported as inconclusive: 22.4 µM [inhibitor, single point]. For `CCCCn1c(N)c(N(CCOC)C(=O)c2ccco2)c(=O)[nH]c1=O`, the Potency was “inactive”. With `CCCCN1CC[C@H]2C=CC[C@@H](C(=O)N3CCN(c4ccccc4)CC3)[C@H]2C1=O` the Potency was inconclusive: 3.98 µM [inhibitor, full curve, poor fit]. In the case of `CCN1CCN(c2ccc(NC(=O)COc3ccccc3Cl)cc2)CC1`, the Potency is reported as “inactive”. For `NC(=O)c1nsc(C(=O)N(Cc2ccco2)C(C(=O)NCC2CCCO2)c2ccc(F)cc2)c1N` (centres undefined), the Potency was “inactive”.
